For 172 sequences, binding signal results are on record in publication PMC6212790.

This is one part of the list. At the low end of the ranking, values are background and their order means little.

This assay concerns the target T1, GST-Rok (full length) (UniProt O34857).
T1 sequence: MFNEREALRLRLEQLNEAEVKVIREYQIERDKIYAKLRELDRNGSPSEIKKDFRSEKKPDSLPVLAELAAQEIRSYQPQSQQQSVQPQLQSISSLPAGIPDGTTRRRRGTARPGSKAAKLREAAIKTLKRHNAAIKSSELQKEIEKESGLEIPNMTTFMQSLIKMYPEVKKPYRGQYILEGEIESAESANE
The assay can be described thus: protein binding microarray.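 Further: rank score from −0.5 (least bound) to 0.5 (best bound).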 The note with it: Rok is a gene silencer of Bacillus subtilis; high values mean tight binding; most listed sequences are background and not binding sites; double strand, one strand shown.
ACCGCGCA had a binding signal of -0.19 E-score. The sequence CTGTACAG registered a binding signal of -0.0652 E-score.

As to ACGAACCA, the binding signal was found to be 0.000876 E-score. In the case of ATCTTAAT, the binding signal is 0.144 E-score. Next, AGACTAAA: -0.0347 E-score; ACAAACAA: 0.0396 E-score; AGGGACAG: -0.117 E-score. Sequence ACTAGGTG yielded a binding signal of 0.223 E-score. The sequence GGGGAATA registered a binding signal of -0.106 E-score.

For the sequence CTTCGGTC, the binding signal is -0.265 E-score. Next, GCTGTCTA: -0.117 E-score; ACGGCCAA: 0.084 E-score. AAAAGAAT gave a binding signal of 0.14 E-score. For CGTCCCTC the value was -0.379 E-score.

Regarding ACTCACTC, the binding signal is 0.0821 E-score. Next, GACTCTGA: -0.135 E-score; AATGTGAT: 0.0808 E-score; CTGGGCGA: -0.199 E-score. As for CCGTTAGG, the binding signal is -0.371 E-score. For CGCACTAA the value was 0.297 E-score.

On to CAAGGGAC, for which the binding signal was -0.185 E-score.

In turn, CCAAGGAC returned a binding signal of -0.0933 E-score. For GCCATTCA, the binding signal is 0.0688 E-score.

ATGCGTCA: the binding signal worked out at 0.0769 E-score. For AATGATGT the value was 0.118 E-score; for CGTGTAAG, -0.00352 E-score. For AGGACCCA the value was -0.17 E-score; for ATACCTTA, 0.218 E-score. Next, AAGTGCGG: -0.0664 E-score. Take AGTGAGAT: the binding signal was -0.127 E-score. On to CCCGCCCC, for which the binding signal was -0.42 E-score.

As for AACTCGAC, the binding signal amounted to 0.0292 E-score. As for TGGGTTAA, the binding signal was determined as 0.0662 E-score. Next, CGCTATTC: -0.0744 E-score; GCGCACCC: -0.259 E-score; AGCTTTTA: 0.0678 E-score. Next, ACTCGCGC: 0.0743 E-score; AAAGGGTG: -0.254 E-score. ACGACCGG showed a binding signal of 0.0184 E-score. For the sequence CGAGTCCC, the binding signal is -0.305 E-score. Next, ATGTGAGA: 0.108 E-score. As for GATCTTAA, the binding signal was found to be 0.106 E-score.

In turn, GATCAGCA showed a binding signal of -0.184 E-score. For GAGTGTTA the value was -0.0182 E-score. Next, CTAGGCGC: -0.241 E-score. Next, CCGAGAAG: -0.183 E-score; CATTGGGC: -0.0545 E-score. On to ACAATTAA, for which the binding signal stood at 0.239 E-score. Regarding GTAGCATA, the binding signal amounted to 0.168 E-score. In turn, AGCACGCT had a binding signal of -0.189 E-score. GAACACCC registered a binding signal of -0.222 E-score. For CTCAAATA the value was -0.0553 E-score; for AGGTACGC, -0.161 E-score. Next, CTCTCACC: -0.216 E-score. As for AACGCGTG, the binding signal was -0.0182 E-score.

CTACACCC: the binding signal amounted to 0.0221 E-score. As for GACCCTAA, the binding signal was -0.321 E-score. GTGTGGGA: the binding signal was -0.0343 E-score.

As for AGGTTGTA, the binding signal worked out at 0.285 E-score. In turn, CCGGATTC had a binding signal of -0.093 E-score. The sequence TGCGCTAA had a binding signal of -0.0338 E-score. For CTAGGCGA the value was -0.138 E-score; for CTAGCTCA, 0.0558 E-score; for GAGGACCA, -0.186 E-score.

In turn, CCATGGTA gave a binding signal of 0.223 E-score. Next, CGGATTGC: -0.176 E-score; ATCGAAAA: 0.0373 E-score; CGCGCGTC: -0.178 E-score. In the case of CAACTCAA, the binding signal was -0.124 E-score.

CGACTCAC came in with a binding signal of -0.104 E-score. For AACCGCCC the value was -0.131 E-score; for CACGGTCC, -0.326 E-score. Sequence GCAGTAGA registered a binding signal of 0.342 E-score. Consider CAACAGAG, for which the binding signal came to 0.0463 E-score. For ACGAACTG the value was 0.0336 E-score; for GCAGCAAC, -0.142 E-score; for CGACAGTC, -0.174 E-score.

CTTATGAA displayed a binding signal of 0.0948 E-score.

The sequence CTTCAGGA had a binding signal of 0.0353 E-score. The sequence GCATATGC yielded a binding signal of 0.129 E-score. For GGGCGCGA the value was -0.256 E-score. Regarding CGCGTACC, the binding signal is -0.0588 E-score. The sequence TCCGCAGA came in with a binding signal of -0.0726 E-score. For the sequence ACGAGTAT, the binding signal amounted to 0.148 E-score. Sequence AGGGCTTA yielded a binding signal of -0.309 E-score. Sequence ACTGCAGC came in with a binding signal of 0.0798 E-score. Next, CGGTTACA: -0.158 E-score; ACGTACTC: 0.0411 E-score; ATTGAAAA: -0.0522 E-score. For AACTGTAG, the binding signal stood at 0.308 E-score. Next, AACACGTA: 0.0614 E-score; CACCAACG: -0.105 E-score; ATTCATCC: -0.0146 E-score. AACGCCAA displayed a binding signal of -0.131 E-score. Next, AGCAACGG: 0.208 E-score; AATTAATC: 0.27 E-score; ACGAAATC: 0.115 E-score. For AGGTGCCC the value was -0.241 E-score. Next, GCTCCTGA: -0.203 E-score. In the case of GCGGGAAA, the binding signal was -0.0972 E-score.

As for CGAACCAG, the binding signal is -0.116 E-score. For GCCAACAA the value was -0.225 E-score; for GCCACTCA, -0.242 E-score.

Turning to ACGAGGAC, the binding signal was -0.201 E-score.

Consider AGAAAACG, for which the binding signal came to 0.0853 E-score. ATCCATCA showed a binding signal of -0.102 E-score. Consider AGTTCCGG, for which the binding signal was -0.0138 E-score.

CACCACTG returned a binding signal of -0.101 E-score. Next, AAAAGGGC: -0.196 E-score; ACCTCGTG: -0.11 E-score; ACCAGGCT: -0.0921 E-score. For GGGGGAAC the value was -0.338 E-score. For CAGCATGG the value was -0.217 E-score; for ACTGGGAT, 0.00597 E-score. Consider AGGCCCGG, for which the binding signal is -0.465 E-score. For TCCGGAGA the value was -0.109 E-score.

AACGTCTC gave a binding signal of -0.125 E-score. Next, ATTGGCGC: -0.151 E-score; CGGGATGC: -0.249 E-score; ATAGTGGC: 0.0463 E-score.

AGAAGCGA returned a binding signal of 0.0276 E-score. On to CAGACCAA, for which the binding signal is -0.23 E-score. With ACTATTTC, the binding signal is 0.322 E-score. Next, ACTACTTA: 0.432 E-score; ACTCCAGC: -0.00543 E-score; GTGTAAAA: 0.244 E-score. On to TTCCAAAA, for which the binding signal was 0.0554 E-score.

For ATTGCCGA, the binding signal was 0.0796 E-score. For AAGCCCCG, the binding signal is -0.283 E-score.

For CCATCTGC, the binding signal was -0.128 E-score.

Take CTGCGGAC: the binding signal stood at 0.00589 E-score. GGGTGACC: the binding signal is -0.329 E-score. For ATATAGTA, the binding signal worked out at 0.456 E-score. Consider CTCCCGTA, for which the binding signal is -0.203 E-score.

On to ACACTTCG, for which the binding signal was -0.0743 E-score. ATCTTAGA: the binding signal is 0.00824 E-score. For AGGATGGC, the binding signal is -0.255 E-score. For GACGATTA the value was -0.0545 E-score. Sequence ATGGCCTG gave a binding signal of -0.342 E-score.

On to GCGAAGCC, for which the binding signal was -0.278 E-score. For ATTGACTA the value was 0.179 E-score; for AAGCGACT, 0.0908 E-score. ATCTAAAA showed a binding signal of 0.185 E-score.

Sequence CCATGGAA had a binding signal of -0.0773 E-score. Regarding AGCGCCAG, the binding signal was -0.342 E-score. Take ATAGGGTA: the binding signal stood at 0.127 E-score. The sequence CAGAGGCG came in with a binding signal of -0.217 E-score. Next, CGAAGTAC: 0.196 E-score.

In the case of AACCTCTA, the binding signal is -0.0826 E-score. As to CCGCTGAG, the binding signal was -0.239 E-score. Next, AATTTTGG: -0.0172 E-score; ACGGAAAG: -0.0193 E-score.

As for ACCGGGAT, the binding signal was -0.155 E-score. Next, CAGAGAAA: -0.0586 E-score.

Sequence CTGGATTC came in with a binding signal of -0.116 E-score. For TCCTTTAA the value was -0.233 E-score; for CCTTGTAC, 0.00133 E-score. For GAAACGTC, the binding signal was -0.309 E-score.

For GCTTCGCA, the binding signal is -0.216 E-score. As to GGGGCAAA, the binding signal is -0.12 E-score. In the case of GATCTACC, the binding signal amounted to 0.382 E-score. For GAATTGCC the value was -0.00624 E-score. In turn, ACCCAAGA yielded a binding signal of -0.0666 E-score. For CCACTTCC the value was -0.101 E-score; for AAATGCTT, -0.0853 E-score; for TACTCTAA, 0.0943 E-score. ATAGCTTG came in with a binding signal of 0.228 E-score. As to TGTACCAA, the binding signal came out at 0.0996 E-score. Sequence ACGACTAT displayed a binding signal of 0.0997 E-score. Next, GATTGCAA: 0.0926 E-score; AAAGGAAG: -0.141 E-score; GCGTTCCC: -0.143 E-score.
